Laboratory results from PubChem BioAssay AID463173 (ICCB-Longwood Screening Facility, Harvard Medical School, 2010).
Hit rate of the full screen: of about 52,000 compounds, about 4,300 (8.3%) were called active. No stated cut-off is given here; in the data, active means survival mostly below about 52% (no sharp cut-off); inactive means mostly above about 56%. Some of the results follow.

System: DeltatarO mutant
Experiment: growth inhibition of S. aureus wild type versus tarO mutant, primary screen, teichoic acid synthesis inhibitors, RN4220, OD600 (AID 463173)
Details: OD600, 18 h, active compounds read low, screened at 18.75 µg/mL (by protocol)

| Structure (SMILES) | survival |
| --- | --- |
| CCN(c1ccccc1)c1nnc(NC(=O)Nc2cccc(Cl)c2C)s1 | inactive: 92% |
| Nc1cc(=O)nc(SCC(=O)Nc2cccc(Cl)c2)n1CCc1ccccc1 | inactive: 76% |
| CSc1ccc(-c2nc3ncccn3c2Nc2ccc(C)c(C)c2)cc1 | inactive: 62% |
| COc1ccc(C2=CC(c3ccccc3F)n3ncc(C(=O)Nc4ccc(C)cc4)c3N2)cc1 (configuration not stated) | inactive: 107% |
| CCC(=O)Nc1ccc(S(=O)(=O)NCc2ccc3c(c2)CCN3C(=O)c2ccc(C)cc2)cc1 | inactive: 94% |
| CCN(CC)C(=O)c1sc(NC(=O)C(C)Sc2nc(-c3ccccc3)cc(C(F)(F)F)n2)c(C(=O)OC)c1C (configuration not stated) | inactive: 136% |
| CC1(CCC#N)N=C(SCCC#N)N(c2ccccc2)C1=O (configuration not stated) | inactive: 71% |
| COc1ccccc1Cn1ccn(Cc2c(F)cccc2Cl)c(=O)c1=O | inactive: 110% |
| CCc1c(C)nc(SCC(=O)N(C(C)C)C(C)C)[nH]c1=O | inactive: 81% |
| COC(=O)c1ccccc1NC(=O)CCC(=O)N1CCOc2ccccc21 | inactive: 65% |
| CCOC(=O)c1c(-c2ccccc2)csc1NC(=O)c1nc(S(=O)(=O)CC)ncc1Cl | active: 11% |
| CC(C)(C)NS(=O)(=O)c1ccc2oc3ccc(S(=O)(=O)NC(C)(C)C)cc3c2c1 | inactive: 86% |
| Cc1ccc(-n2cccn2)cc1 | inactive: 92% |
| Cc1noc(/C=C/N(C)C)c1S(=O)(=O)N1CCCC(C(=O)Nc2ccc(F)cc2F)C1 (configuration not stated) | inactive: 86% |
| COc1ccc(NC(=O)Nc2sc3nc4n(c(=O)c3c2C)CCC(C)CC4)cc1OC (configuration not stated) | inactive: 94% |
| Cc1c2cnn(CC(=O)NCc3ccc(F)cc3)c(=O)c2c(C)n1Cc1ccccc1F | inactive: 90% |
| Cc1nc2c(C(=O)NCCc3ccccc3)cnn2c(C)c1Cc1c(F)cccc1Cl | inactive: 79% |
| CC(C)(C)OC(=O)N1CCC(c2c(C(=O)NCc3cccs3)cnn2-c2ccc(F)cc2F)CC1 | inactive: 72% |
| COc1ccc(Cl)cc1Nc1ncnc2c1c(-c1ccccc1)cn2-c1ccccc1 | inactive: 129% |

| Structure (SMILES) | survival |
| --- | --- |
| CCOCCCNC(=O)c1cc2c(-c3ccc(OC)c(OC)c3)nn(C)c2s1 | inactive: 89% |
| COCCN1CCc2nc(SCC(=O)Nc3ccc(Br)cc3)[nH]c(=O)c2C1 | inactive: 79% |
| N#CC(Cc1cccs1)c1nc2ccccc2[nH]1 (configuration not stated) | inactive: 105% |
| Cc1ccc(CNS(=O)(=O)c2cc(C(=O)Nc3cccc(C(F)(F)F)c3)ccc2F)cc1 | inactive: 87% |
| COc1ccc(S(=O)(=O)N2Cc3ccccc3CC2C(=O)N2CCOCC2)cc1OC (configuration not stated) | inactive: 87% |
| O=C(c1ccco1)N1CCN(C(c2coc3ccc(Cl)cc3c2=O)c2nnnn2C2CCCC2)CC1 (configuration not stated) | inactive: 76% |
| CCS(=O)(=O)c1ncc(Cl)c(C(=O)N2CCN(c3cccc(Cl)c3)CC2)n1 | active: 8% |
| Fc1ccc(C(c2nnnn2Cc2ccccc2)N2CCSCC2)cc1 (configuration not stated) | inactive: 97% |
| NC(=O)C1(N2CCCCC2)CCN(C(=O)Nc2ccc(C(F)(F)F)cc2)CC1 | inactive: 112% |
| CCN(CC)c1nc(-c2ccccc2)nc2ccccc12 | inactive: 86% |
| Cc1ccc(NCc2ccccc2-c2nnc(-c3ccccc3Cl)o2)c(C)c1 | inactive: 83% |
| COc1ccccc1NC(=O)Cn1c(=O)n(Cc2ccco2)c(=O)c2cccnc21 | inactive: 74% |
| Cc1cc(-c2ccc(C)c(S(=O)(=O)N(C)c3ccc(C)c(C)c3)c2)on1 | inactive: 86% |
| O=S(=O)(c1ccccc1)N(c1cccnc1)S(=O)(=O)c1ccccc1 | inactive: 73% |
| CCc1cc2ccccc2nc1SCC(=O)N1CCCC1 | inactive: 59% |
| COC(=O)c1ccc(NCC(=O)c2ccccc2)cc1 | active: 64% |
| Cc1ccc(OCCCn2c(CCNC(=O)C3CCCCC3)nc3ccccc32)c(C)c1 | inactive: 64% |
| COc1ccc(OC)c(NC(=O)CN2C(=O)c3ccccc3Sc3ccc(C(=O)N4CCCC4)cc32)c1 | inactive: 109% |
| COc1ccc(N(Cc2cccs2)C(=O)Nc2ccccc2)cc1 | inactive: 75% |

| Structure (SMILES) | survival |
| --- | --- |
| Cc1cc(C)c2c(=O)cc(CSc3nnc(COc4ccccc4C)n3C)[nH]c2c1 | inactive: 85% |
| C1CCCN(c2nc3nonc3nc2N2CCCCCC2)CC1 | inactive: 67% |
| Cc1ccc2c(c1)c1c(c(=O)n(-c3ccccc3C)c(=O)n1CC(=O)NCc1ccccc1)n2C | inactive: 80% |
| O=c1cc(-c2ccccc2)c2cc(Cl)c3c(c2o1)CN(Cc1ccccc1)CO3 | inactive: 89% |
| COc1ccc(CC(=O)NCc2ccc3c(c2)CCN3C(=O)c2ccc(Cl)cc2)cc1OC | inactive: 86% |
| COc1cc(-c2nc3ccc(Cl)cn3c2NC(C)(C)C)ccc1O | inactive: 80% |
| CCc1ccc(CNC(=O)c2cc(-c3ccc(Br)s3)nc3ccccc23)cc1 | active: 60% |
| CCCOc1ccc(C2C(=O)N(C3CCC(C)CC3)CC(=O)N2CCC2=CCCCC2)cc1OC (configuration not stated) | inactive: 80% |
| COc1cccc(-c2ccc3c(N)c(C(=O)NCc4ccc(Cl)cc4)sc3n2)c1 | active: 41% |
| COc1ccc(OC)c(-c2cc(C(=O)NC(C)c3ccccc3)no2)c1 (configuration not stated) | active: -14% |
| CCc1ccc(NC(=O)Cn2c(=O)oc3cc(S(=O)(=O)N4CCCCCC4)ccc32)cc1 | inactive: 61% |
| O=C(Cn1cc(/C=C2\C(=O)NC(=O)N(Cc3ccccc3)C2=O)c2ccccc21)NCc1ccco1 | inactive: 64% |
| Cc1onc(-c2ccc(F)cc2F)c1C(=O)Nc1cccc(C(F)(F)F)c1 | inactive: 97% |
| CN(C(=O)C(=O)Nc1ccc2nc3n(c(=O)c2c1)CCCCC3)c1cccc(C(F)(F)F)c1 | inactive: 76% |
| O=S(=O)(Nc1nc2n(n1)C(c1ccc(F)cc1)C=C(c1ccccc1)N2)c1ccc(Cl)cc1 (configuration not stated) | active: 10% |
| Cc1cccc(N2CCN(C3(c4ccccc4)C(=O)c4ccccc4C3=O)CC2)c1C | inactive: 79% |
| Cc1ccc(S(=O)(=O)N2CCOCC2)cc1C(=O)Nc1ccccc1C(=O)O | inactive: 83% |
| COc1ccc(CCNC(=O)c2c(C)nn(-c3ccc(F)cc3)c2-n2cccc2)cc1OC | inactive: 74% |
| O=C(Nc1cccc(Cl)c1)NC1(C(=O)Nc2ccc3c(c2)OCCO3)CCCCC1 | inactive: 88% |
